From paper PMC2808332
No constants are given. Whether binding was seen depends on the method and setting. Some entries that bind do so weakly or less than the wild type.

Amino acid sequences for entries named in this document (tags omitted).
UniProt P53355: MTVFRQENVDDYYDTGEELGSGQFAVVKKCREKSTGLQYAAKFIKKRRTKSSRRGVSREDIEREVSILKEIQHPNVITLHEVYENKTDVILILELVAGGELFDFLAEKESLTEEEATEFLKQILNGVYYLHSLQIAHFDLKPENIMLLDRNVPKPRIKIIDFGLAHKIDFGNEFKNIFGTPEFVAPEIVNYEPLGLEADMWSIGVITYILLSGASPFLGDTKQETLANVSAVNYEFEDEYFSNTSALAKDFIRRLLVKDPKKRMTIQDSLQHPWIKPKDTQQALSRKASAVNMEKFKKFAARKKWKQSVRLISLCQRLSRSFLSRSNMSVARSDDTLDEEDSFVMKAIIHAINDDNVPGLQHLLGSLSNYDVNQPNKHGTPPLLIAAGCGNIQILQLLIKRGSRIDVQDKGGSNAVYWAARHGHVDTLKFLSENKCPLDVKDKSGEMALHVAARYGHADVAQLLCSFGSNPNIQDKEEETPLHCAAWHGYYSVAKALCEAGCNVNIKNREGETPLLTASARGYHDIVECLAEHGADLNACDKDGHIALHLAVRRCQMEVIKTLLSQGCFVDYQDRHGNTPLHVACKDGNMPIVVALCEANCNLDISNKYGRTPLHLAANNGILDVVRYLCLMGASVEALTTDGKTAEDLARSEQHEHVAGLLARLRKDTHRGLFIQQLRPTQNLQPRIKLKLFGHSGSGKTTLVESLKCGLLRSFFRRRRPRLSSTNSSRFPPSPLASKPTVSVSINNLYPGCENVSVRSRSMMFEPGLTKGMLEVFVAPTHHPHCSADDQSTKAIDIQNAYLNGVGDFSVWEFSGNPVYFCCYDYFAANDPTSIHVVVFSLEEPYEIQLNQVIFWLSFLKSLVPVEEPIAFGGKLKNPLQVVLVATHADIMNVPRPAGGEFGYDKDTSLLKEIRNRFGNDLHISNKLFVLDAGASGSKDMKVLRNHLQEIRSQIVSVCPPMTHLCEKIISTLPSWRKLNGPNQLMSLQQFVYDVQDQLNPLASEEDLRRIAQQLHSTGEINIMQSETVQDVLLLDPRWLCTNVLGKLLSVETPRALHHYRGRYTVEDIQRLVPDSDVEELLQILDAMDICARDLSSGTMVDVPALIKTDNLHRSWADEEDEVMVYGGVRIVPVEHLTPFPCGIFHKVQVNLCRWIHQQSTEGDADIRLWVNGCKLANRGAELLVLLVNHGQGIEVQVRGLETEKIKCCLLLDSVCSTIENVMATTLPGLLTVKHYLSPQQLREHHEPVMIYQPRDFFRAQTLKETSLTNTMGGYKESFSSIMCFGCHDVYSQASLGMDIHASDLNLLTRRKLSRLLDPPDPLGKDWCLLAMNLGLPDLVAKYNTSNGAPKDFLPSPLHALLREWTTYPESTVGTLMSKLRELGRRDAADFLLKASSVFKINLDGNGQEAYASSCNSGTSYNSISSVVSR
UniProt Q9H6T3: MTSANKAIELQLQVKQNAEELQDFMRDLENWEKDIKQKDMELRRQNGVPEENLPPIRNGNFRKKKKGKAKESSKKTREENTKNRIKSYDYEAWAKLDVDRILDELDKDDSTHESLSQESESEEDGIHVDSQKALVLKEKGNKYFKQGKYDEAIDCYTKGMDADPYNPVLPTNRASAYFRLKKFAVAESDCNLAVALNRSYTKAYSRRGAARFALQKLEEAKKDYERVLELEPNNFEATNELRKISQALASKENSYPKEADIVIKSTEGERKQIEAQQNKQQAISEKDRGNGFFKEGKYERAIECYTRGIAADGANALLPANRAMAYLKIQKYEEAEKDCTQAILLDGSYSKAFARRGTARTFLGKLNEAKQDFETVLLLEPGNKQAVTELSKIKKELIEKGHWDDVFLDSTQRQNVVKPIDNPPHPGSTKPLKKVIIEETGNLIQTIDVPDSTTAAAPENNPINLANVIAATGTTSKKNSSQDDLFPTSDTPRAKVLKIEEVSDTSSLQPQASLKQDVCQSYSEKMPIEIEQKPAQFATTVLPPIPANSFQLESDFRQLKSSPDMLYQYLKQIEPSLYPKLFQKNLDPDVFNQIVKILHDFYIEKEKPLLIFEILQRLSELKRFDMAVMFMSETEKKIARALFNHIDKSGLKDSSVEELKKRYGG
UniProt Q9BYM8: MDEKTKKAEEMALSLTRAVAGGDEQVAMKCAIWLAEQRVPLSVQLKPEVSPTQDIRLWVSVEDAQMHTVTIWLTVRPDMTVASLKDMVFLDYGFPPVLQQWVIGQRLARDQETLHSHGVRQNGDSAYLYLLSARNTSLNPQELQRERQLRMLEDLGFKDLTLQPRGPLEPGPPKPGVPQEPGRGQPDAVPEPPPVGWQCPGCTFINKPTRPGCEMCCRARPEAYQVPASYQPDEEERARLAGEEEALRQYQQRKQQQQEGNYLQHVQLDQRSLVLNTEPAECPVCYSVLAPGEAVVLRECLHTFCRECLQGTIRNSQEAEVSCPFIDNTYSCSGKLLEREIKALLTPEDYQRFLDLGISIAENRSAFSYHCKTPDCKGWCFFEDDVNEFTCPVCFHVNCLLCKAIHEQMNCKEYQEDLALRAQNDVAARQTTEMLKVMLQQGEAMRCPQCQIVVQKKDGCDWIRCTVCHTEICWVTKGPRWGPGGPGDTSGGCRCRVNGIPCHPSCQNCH

Columns and labels:
Experiment in all cases: peptide or protein array; Invitrogen Protoarray v4.0, about 8,400 human proteins spotted on nitrocellulose-coated glass slides; 10 µg biotinylated tag-free NEMO in 120 µl probing buffer (PBS, 0.5 mM DTT, 5 mM MgCl2, 5% glycerol, 0.05% Triton X-100), 4°C, 1.5 h; bound NEMO detected with labelled streptavidin; hits Z-score > 3, hits of the biotin-GST control array subtracted; both purified
[1] = target: Death-associated protein kinase 1 (human) (UniProt P53355)
[2] = target: RNA polymerase II associated protein 3 (human) (UniProt Q9H6T3)
[3] = target: RanBP-type and C3HC4-type zinc finger containing 1 (human) (UniProt Q9BYM8)
[4] = target: T1, Tripartite motif-containing 41 (human) (UniProt Q8WV44)
T1 sequence: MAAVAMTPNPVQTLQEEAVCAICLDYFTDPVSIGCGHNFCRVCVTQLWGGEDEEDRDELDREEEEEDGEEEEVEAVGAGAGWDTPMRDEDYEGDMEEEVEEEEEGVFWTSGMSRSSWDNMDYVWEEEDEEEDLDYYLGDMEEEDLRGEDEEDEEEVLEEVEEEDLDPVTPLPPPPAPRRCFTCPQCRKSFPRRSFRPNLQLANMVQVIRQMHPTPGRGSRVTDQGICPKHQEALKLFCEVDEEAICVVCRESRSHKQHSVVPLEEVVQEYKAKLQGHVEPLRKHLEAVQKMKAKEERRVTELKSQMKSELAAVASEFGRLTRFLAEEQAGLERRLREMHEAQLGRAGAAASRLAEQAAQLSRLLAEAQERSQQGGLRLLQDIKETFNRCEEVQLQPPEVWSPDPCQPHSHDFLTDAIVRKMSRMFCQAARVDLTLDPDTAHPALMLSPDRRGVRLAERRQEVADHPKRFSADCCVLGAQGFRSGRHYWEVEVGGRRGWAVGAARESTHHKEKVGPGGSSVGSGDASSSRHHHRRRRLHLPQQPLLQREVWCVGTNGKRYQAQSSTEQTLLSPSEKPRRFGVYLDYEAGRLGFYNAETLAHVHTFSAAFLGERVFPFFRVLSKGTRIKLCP

[5] = target: Nuclear receptor binding factor 2 (human) (UniProt Q96F24)
[6] = target: T2, Killer cell immunoglobulin-like receptor, three domains, X1 (human) (UniProt Q9H7L2)
T2 sequence: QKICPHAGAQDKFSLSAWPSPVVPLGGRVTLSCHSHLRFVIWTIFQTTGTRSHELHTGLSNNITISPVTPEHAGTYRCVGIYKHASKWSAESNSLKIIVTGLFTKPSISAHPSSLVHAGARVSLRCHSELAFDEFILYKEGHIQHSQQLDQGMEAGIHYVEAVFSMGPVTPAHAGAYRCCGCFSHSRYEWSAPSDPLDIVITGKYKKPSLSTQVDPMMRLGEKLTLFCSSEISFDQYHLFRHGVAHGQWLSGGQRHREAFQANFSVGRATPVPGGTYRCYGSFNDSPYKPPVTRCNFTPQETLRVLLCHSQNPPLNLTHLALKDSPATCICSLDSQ

binding [2]: binds
binding [3]: binds
binding [4]: binds
binding [5]: binds
Substance: NEMO (NF-κB essential modulator), tag-free, biotinylated (from UniProt Q9Y6K9 1-419)
binding [1]: binds
binding [6]: binds
